This note sets out measurements from ChEMBL document CHEMBL4888484, “Replenishing the malaria drug discovery pipeline: Screening and hit evaluation of the MMV Hit Generation Library 1 (HGL1) against asexual blood stage Plasmodium falciparum ,using a nano luciferase reporter read-out” (2022).

SMILES strings stand for the structures. The campaign covered roughly 150,000 compounds. About 540 (0.36%) showed an effect of 50% or more. The list shows a part of the results.

In the experiment the test system is Plasmodium falciparum. Briefly: Primary screen in NF54 nanoGlo assay, in single point, at 2uM, 72h; a lower Z score goes with more inhibition. It counts as functional, Erythrocyte. The conditions noted are these: timepoint 72 hour.
On to `Cc1cc(C)c2c(c1)-c1c(ssc1=S)C(C)(C)N2C(=O)Cn1nc(C)cc1C`, for which the “% Inhibition” value is on record as 4% and the Z score is on record as -0.53.
`COc1cccc(CN[C@H]2CCCN(c3nc(C)c4cc(F)ccc4n3)CC2)c1OC`: the “% Inhibition” value is -11% and the Z score is 1.38.
On the same counts, the results for `Cc1cccc(OCC(=O)c2ccc3c(c2)N(Cc2ccc(C(=O)NCc4ccccc4)o2)C(=O)CO3)c1` are -8% and 0.77.
For the molecule `Cc1ccnn1CCC(=O)N1CCCN(S(=O)(=O)N2CCCC2)CC1`, the “% Inhibition” value is recorded as 12% and the Z score was -2.32.
The matching figures for `C[C@]1(CO)[C@H]2Cc3sc(NC(=O)C4CCC4)nc3[C@@H](CC(=O)Nc3nccs3)[C@]2(C)CC[C@H]1O`: -13% and 1.64.
The matching figures for `O=C(CCc1ccc(O)cc1)N1CC[C@@H]2CC[C@@]21c1cccnc1`: -7% and 1.03.
The matching figures for `Nc1nc(-c2cccs2)c(-c2cccs2)s1`: -10% and 2.01.
Consider `C[C@]1(O)CCN(C(=O)c2cnc3c(c2)CCC3)C[C@H]1O`, for which the “% Inhibition” value is 7% and the Z score was -0.7.
On the same counts, the results for `COC(=O)c1cn(N)cc2c(O)nnc1-2` are 0% and -0.03.
The matching figures for `COc1ccc(-c2nn(-c3ccccc3)c3nc(C)cc(C(F)(F)F)c23)cc1`: 7% and -0.84.
On the same counts, the results for `COc1cccc(NC(=O)O[C@@H]2CC[C@]3(C)C(CC[C@@H](O)[C@H]3CC(=O)N3CCC[C@H]3CO)[C@]2(C)CO)c1` (some centres not stated) are -1% and 0.16.
As to `Nc1c2c(-c3ccccc3F)nc(NCCc3ccccc3)nc2nn1-c1ccc(Cl)c(Cl)c1`, the “% Inhibition” value is -3% and the Z score turned out to be 0.45.
`Cn1c(=O)sc2cc(NS(=O)(=O)c3ccc4c(c3)CCCC4)ccc21`: the “% Inhibition” value was found to be 13% and the Z score is -1.71.
On to `O=C1NC(=O)[C@@H]2CN(c3nc4ccccc4s3)C[C@H]12`, for which the “% Inhibition” value is -6% and the Z score stood at 0.72.
In the case of `COc1ccccc1NC(=O)c1cccc(-n2ncc(C#N)c2N)c1`, the “% Inhibition” value is listed as -2% and the Z score is on record as 0.18.
As to `C=C(C)COc1cccc(CN2CCN(C(=O)c3nc[nH]n3)CC2)c1`, the “% Inhibition” value is 18% and the Z score is given as -2.58.
As to `CC(C)CCOC1CCN(C(=O)Cn2cnnn2)CC1`, the “% Inhibition” value was 7% and the Z score was -0.89.
On the same counts, the results for `CCOc1cccc(Cc2noc([C@@H]3CCCN3c3nccs3)n2)n1` are 4% and -0.45.
On to `Cn1nc2nc(N3CCN(c4ccccn4)CC3)nc(-c3ccc(F)c(Cl)c3)c2c1N`, for which the “% Inhibition” value is -4% and the Z score came to 0.55.
The matching figures for `CC(C)[C@@](C)(O)CNCc1cc(O)cc(Cl)c1`: 11% and -2.29.
The matching figures for `CC(C)OCCN(C)C(=O)c1ccc(O)cc1F`: -8% and 1.08.
As for `COc1cc(C)nc(N(C)Cc2scnc2C)n1`, the “% Inhibition” value was found to be 3% and the Z score is listed as -0.43.
The matching figures for `CCCC(C#N)(CCC)NC(=O)C[C@H]1CCCO1`: -9% and 0.93.
As for `CN(CC1CCCCC1)C(=O)Cn1cnnn1`, the “% Inhibition” value is listed as -10% and the Z score was found to be 2.06.
On the same counts, the results for `CCCc1nc(C)sc1C(=O)OCC` are -21% and 1.96.
Turning to `Cc1cc(S(=O)(=O)N2CC[C@]3(CCN(C)C3)C2)sc1C`, the “% Inhibition” value was -13% and the Z score was found to be 1.88.
For `COc1ccc(C(=O)N[C@@](C)(CO)C(C)C)cn1`, the “% Inhibition” value was -9% and the Z score is 1.43.
As for `CC(c1nnnn1C)N1CCC(C)(O)C1` (configuration not stated), the “% Inhibition” value is reported as -5% and the Z score is recorded as 0.92.
As for `CN(CCc1cnccn1)C(=O)N[C@H]1CCC[C@@H](C2CC2)C1`, the “% Inhibition” value was found to be 0% and the Z score was -0.02.
On the same counts, the results for `COC(=O)[C@H]1CCn2c(CCOc3ccccc3)nnc2C1` are 0% and 0.03.
For `COc1ccc(OC)c(-c2n[nH]c(C3CCOCC3)c2NC(=O)C(C)C)c1`, the “% Inhibition” value is -12% and the Z score was found to be 1.12.
Turning to `Cc1cnn(C2CN(Cc3nc(-c4ccoc4)no3)C2)c1`, the “% Inhibition” value is given as -9% and the Z score worked out at 1.3.
As to `Cc1nc(CC(=O)NC2(c3nnc(N)s3)CCCCC2)cs1`, the “% Inhibition” value is given as -4% and the Z score came out at 0.67.
On the same counts, the results for `CCn1ncc(C2=NO[C@H](C(=O)N3CCC(C(N)=O)CC3)C2)c1C` are -12% and 1.7.
For the molecule `CC(C)(CNC(=O)c1cc(-c2ccc(C(C)(C)C)cc2)nc2ccc(Br)cc12)CNC(=O)c1cc(-c2ccc(C(C)(C)C)cc2)nc2ccc(Br)cc12`, the “% Inhibition” value is reported as -13% and the Z score is reported as 1.49.
The matching figures for `O=c1[nH]c2cccc(N3CCN(Cc4cccc(-c5ccccc5)c4)CC3)c2o1` [BIFEPRUNOX]: 1% and -0.14.
On the same counts, the results for `CN(C(=O)c1ccc(OC2CCN(S(=O)(=O)N(C)C)CC2)cc1)C(C1CC1)C1CC1` are -9% and 1.36.
On the same counts, the results for `CCN(CC)C(N)=NCCOc1cccc(C)c1` are -5% and 0.51.
Regarding `NC(=O)[C@@H]1CC(C(=O)Nc2nccs2)=NN1c1ccccc1`, the “% Inhibition” value turned out to be 7% and the Z score is reported as -1.25.
The matching figures for `CC(C)CN1CCCn2nc(CNC(=O)Nc3ccc(Cl)cc3)cc2C1`: -1% and 0.24.
The matching figures for `O=C(COc1ccc(Cl)cc1)NC[C@H](O)c1ccoc1`: -6% and 1.
